# This is one part of the list.
# B1: SGC, Q9M345 (protein)
# chain: QNLNFTYNGFHPPLTDISLQGLATVTPNGLLKLTNTSVQKTGHAFCTERIRFKDSQNGNVSSFSTTFVFAIHSQIPTLSGHGIAFVVAPTLGLPFALPSQYIGLFNISNNGNDTNHIFAVEFDTIQSSEFGDPNDNHVGIDLNGLRSANYSTAGYRDDHDKFQNLSLISRKRIQVWIDYDNRSHRIDVTVAPFDSDKPRKPLVSYVRDLSSILLEDMYVGFSSATGSVLSEHFLVGWSFRLNGEAPMLSLSKLPKLPRFEPRRIS
# Assays:
# Assay in all cases: glycan array binding signal (z-score within array); higher = stronger binding
# Details in all cases: glycan notation: IUPAC condensed, linker removed
# Gal6S(b1-4)Glc = biological target: Gal6S(b1-4)Glc
# Outline: (§1)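 The binding signal is a Z-score computed within each array and averaged over linkers. Arrays of the same protein sequence at different concentrations or buffers were also averaged together. Data originate from 3228 arrays in the Consortium for Functional Glycomics database, kept only where the protein sequence was available.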
# Gal6S(b1-4)Glc6S = biological target: Gal6S(b1-4)Glc6S
# Outline: as §1
# Gal6S(b1-4)GlcNAc = biological target: Gal6S(b1-4)GlcNAc
# Outline: as §1
# Gal6S(b1-4)GlcNAc6S = biological target: Gal6S(b1-4)GlcNAc6S
# Outline: as §1
# GalNAc(a1-3)Gal = biological target: GalNAc(a1-3)Gal
# Outline: as §1
# GalNAc(a1-3)GalNAc = biological target: GalNAc(a1-3)GalNAc
# Outline: as §1
# [1] = biological target: GalNAc(a1-3)GalNAc(b1-3)Gal(a1-4)Gal(b1-4)Glc
# Outline: as §1
# [2] = biological target: GalNAc(a1-3)GalNAc(b1-3)Gal(a1-4)Gal(b1-4)GlcNAc
# Outline: as §1
# GalNAc(b1-3)Gal = biological target: GalNAc(b1-3)Gal
# Outline: as §1
# [3] = biological target: GalNAc(b1-3)Gal(a1-4)Gal(b1-4)GlcNAc
# Outline: as §1
# [4] = biological target: GalNAc(b1-3)Gal(a1-4)Gal(b1-4)GlcNAc(b1-3)Gal(b1-4)Glc
# Outline: as §1
# [5] = biological target: GalNAc(b1-3)Gal(a1-6)Gal(b1-4)Glc
# Outline: as §1
# GalNAc(b1-3)GalNAc = biological target: GalNAc(b1-3)GalNAc
# Outline: as §1
# GalNAc(b1-3)GlcNAc = biological target: GalNAc(b1-3)GlcNAc
# Outline: as §1
# GalNAc(b1-4)Gal(b1-4)Glc = biological target: GalNAc(b1-4)Gal(b1-4)Glc
# Outline: as §1
# GalNAc(b1-4)GlcNAc = biological target: GalNAc(b1-4)GlcNAc
# Outline: as §1
# [6] = biological target: GalNAc(b1-4)GlcNAc(b1-2)Man
# Outline: as §1
# [7] = biological target: GalNAc(b1-4)GlcNAc(b1-2)Man(a1-3)[GalNAc(b1-4)GlcNAc(b1-2)Man(a1-6)]Man(b1-4)GlcNAc(b1-4)GlcNAc
# Outline: as §1
# [8] = biological target: GalNAc(b1-4)GlcNAc(b1-3)GalNAc(b1-4)GlcNAc
# Outline: as §1
# GalNAc(b1-4)GlcNAc6S = biological target: GalNAc(b1-4)GlcNAc6S
# Outline: as §1
# GalNAc(b1-6)GalNAc = biological target: GalNAc(b1-6)GalNAc
# Outline: as §1
# GalNAc3S(b1-4)GlcNAc = biological target: GalNAc3S(b1-4)GlcNAc
# Outline: as §1
# GalNAc3S(b1-4)GlcNAc3S = biological target: GalNAc3S(b1-4)GlcNAc3S
# Outline: as §1
# [9] = biological target: GalNAc3S(b1-4)[Fuc(a1-3)]GlcNAc
# Outline: as §1
# GalNAc4S6S(b1-4)GlcNAc = biological target: GalNAc4S6S(b1-4)GlcNAc
# Outline: as §1
# GalNAc6S(b1-4)GlcNAc = biological target: GalNAc6S(b1-4)GlcNAc
# Outline: as §1
# Glc(a1-4)Glc = biological target: Glc(a1-4)Glc
# Outline: as §1
# [10] = biological target: Glc(a1-4)Glc(a1-4)Glc(a1-4)Glc
# Outline: as §1
# Glc(a1-6)Glc(a1-6)Glc = biological target: Glc(a1-6)Glc(a1-6)Glc
# Outline: as §1
# [11] = biological target: Glc(a1-6)Glc(a1-6)Glc(a1-6)Glc
# Outline: as §1
# Glc(b1-4)Glc = biological target: Glc(b1-4)Glc
# Outline: as §1
# Glc(b1-6)Glc = biological target: Glc(b1-6)Glc
# Outline: as §1
# GlcA(b1-3)Gal = biological target: GlcA(b1-3)Gal
# Outline: as §1
# GlcA(b1-3)GlcNAc = biological target: GlcA(b1-3)GlcNAc
# Outline: as §1
# GlcA(b1-6)Gal = biological target: GlcA(b1-6)Gal
# Outline: as §1
# [12] = biological target: GlcA3S(b1-3)Gal(b1-4)GlcNAc(b1-2)Man
# Outline: as §1
# [13] = biological target: GlcA3S(b1-3)Gal(b1-4)GlcNAc(b1-3)Gal(b1-4)Glc
# Outline: as §1
binder,measurement,setting,value
B1,glycan array binding signal (z-score),Gal6S(b1-4)Glc,0.785
same,glycan array binding signal (z-score),Gal6S(b1-4)Glc6S,-0.104
same,glycan array binding signal (z-score),Gal6S(b1-4)GlcNAc,-0.225
same,glycan array binding signal (z-score),Gal6S(b1-4)GlcNAc6S,0.254
same,glycan array binding signal (z-score),GalNAc(a1-3)Gal,0.322
same,glycan array binding signal (z-score),GalNAc(a1-3)GalNAc,-0.054
same,glycan array binding signal (z-score),[1],-0.323
same,glycan array binding signal (z-score),[2],-0.411
same,glycan array binding signal (z-score),GalNAc(b1-3)Gal,-0.376
same,glycan array binding signal (z-score),[3],-0.095
same,glycan array binding signal (z-score),[4],-0.243
same,glycan array binding signal (z-score),[5],-0.419
same,glycan array binding signal (z-score),GalNAc(b1-3)GalNAc,-0.319
same,glycan array binding signal (z-score),GalNAc(b1-3)GlcNAc,-0.021
same,glycan array binding signal (z-score),GalNAc(b1-4)Gal(b1-4)Glc,-0.276
same,glycan array binding signal (z-score),GalNAc(b1-4)GlcNAc,-0.318
same,glycan array binding signal (z-score),[6],0.403
same,glycan array binding signal (z-score),[7],0.275
same,glycan array binding signal (z-score),[8],-0.359
same,glycan array binding signal (z-score),GalNAc(b1-4)GlcNAc6S,-0.302
same,glycan array binding signal (z-score),GalNAc(b1-6)GalNAc,-0.268
same,glycan array binding signal (z-score),GalNAc3S(b1-4)GlcNAc,-0.38
same,glycan array binding signal (z-score),GalNAc3S(b1-4)GlcNAc3S,-0.349
same,glycan array binding signal (z-score),[9],-0.39
same,glycan array binding signal (z-score),GalNAc4S6S(b1-4)GlcNAc,-0.389
same,glycan array binding signal (z-score),GalNAc6S(b1-4)GlcNAc,-0.117
same,glycan array binding signal (z-score),Glc(a1-4)Glc,-0.339
same,glycan array binding signal (z-score),[10],-0.345
same,glycan array binding signal (z-score),Glc(a1-6)Glc(a1-6)Glc,-0.308
same,glycan array binding signal (z-score),[11],-0.311
same,glycan array binding signal (z-score),Glc(b1-4)Glc,-0.353
same,glycan array binding signal (z-score),Glc(b1-6)Glc,-0.344
same,glycan array binding signal (z-score),GlcA(b1-3)Gal,-0.207
same,glycan array binding signal (z-score),GlcA(b1-3)GlcNAc,-0.369
same,glycan array binding signal (z-score),GlcA(b1-6)Gal,-0.295
same,glycan array binding signal (z-score),[12],-0.501
same,glycan array binding signal (z-score),[13],-0.383

# Reference: the supplement of paper PMC8728848
